Experimental findings from the supplement of paper PMC10369915 are described below.

The other results are listed elsewhere or left out. Cut-off read from the data, not from the text of the source: active = 3.2 or more and inactive = the rest. Most of these values are background signal.
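Note: displayed peptides selected on beads carrying the immobilized SH2 domain, with library peptides lacking any tyrosine serving as negative controls.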

The first experiment concerns the target SHP2 C-SH2 domain E139D. As to the kind of experiment: enrichment score (SH2-bound / input frequency) (ratio); bacterial display of known human phosphotyrosine sites (pTyr-Var adds point mutants) read by sequencing; higher = stronger binding; tyrosines were phosphorylated by kinases first. Particulars: peptide library: pTyr-Var.
With KRGVSYILKLA [SERPINB1_Y84_A82V], the enrichment score is inactive: 1.34.
Still for that read-out and setting: under GLDSSYLLRDS [SH2D1A_Y29_G27S] stands inactive: 0.677.
Still for that read-out and setting: in the case of LLNAIYLSAKR [SERPING1_Y294_W299R] it was inactive: 1.92.
Same read-out and setting: in the case of DLVRPYVHKIL [SF3B1_Y570] it was inactive: 1.05; in that of IVGRLYRLLTE [SETX_Y1978_L1976R], inactive: 1.34.
Regarding LLNAIYLSAKW [SERPING1_Y294], the enrichment score was inactive: 1.37.
For the molecule VMTLDYSKTVV [SETD2_Y770_V768L], the enrichment score is inactive: 1.06.
Regarding VLAAQYTTVGR [SGSH_Y240_D235V], the enrichment score is inactive: 0.703.
The same measure, in the same setting: in the case of GPCKAYELSQR [SETX_Y1297_R1294C] it was inactive: 0.768; in that of DAVAVYDGKIS [SH2D1A_Y7_H8D], inactive: 0.905.
For DPTFGYEDFTR [SESN2_Y323], the enrichment score was inactive: 1.01.
On the same count and under the same terms, under FLLRVYSIFSK [SGCE_Y38_T36R] stands inactive: 2.21.
Take RPFFLYVAFHD [SGSH_Y174]: the enrichment score was inactive: 0.391.
Still for that read-out and setting: in the case of NSNSDYVDILP [SH2D1B_Y127_V130I] it was inactive: 0.63.
Take TEQMAYCPIQC [SHC4_Y403]: the enrichment score is inactive: 0.659.
For TEHMAYCPIQC [SHC4_Y403_Q400H], the enrichment score was inactive: 0.854.
Still for that read-out and setting: in the case of LYRYGYANTSE [SI_Y1233_C1229Y] it was inactive: 1.14; in that of GPRKAYELSQR [SETX_Y1297], inactive: 0.548.

For the next experiment, the target named is SHP2 C-SH2 domain wild-type. The experiment is described as above. Particulars: peptide library: pTyr-Var.
For KRGVSYILKLA [SERPINB1_Y84_A82V], the enrichment score was inactive: 1.24.
Same read-out and setting: in the case of GLDSSYLLRDS [SH2D1A_Y29_G27S] it was inactive: 0.694.
On the same count and under the same terms, in the case of LLNAIYLSAKR [SERPING1_Y294_W299R] it was inactive: 1.8; in that of DLVRPYVHKIL [SF3B1_Y570], inactive: 1.12.
With IVGRLYRLLTE [SETX_Y1978_L1976R], the enrichment score is inactive: 1.06.
For LLNAIYLSAKW [SERPING1_Y294], the enrichment score was inactive: 1.7.
In the case of VMTLDYSKTVV [SETD2_Y770_V768L], the enrichment score was inactive: 1.05.
On to VLAAQYTTVGR [SGSH_Y240_D235V], for which the enrichment score is inactive: 1.83.
The same measure, in the same setting: under GPCKAYELSQR [SETX_Y1297_R1294C] stands inactive: 1.08.
The same measure, in the same setting: under DAVAVYDGKIS [SH2D1A_Y7_H8D] stands inactive: 0.616.
Still for that read-out and setting: in the case of DPTFGYEDFTR [SESN2_Y323] it was inactive: 0.914; in that of FLLRVYSIFSK [SGCE_Y38_T36R], inactive: 1.85.
In the case of RPFFLYVAFHD [SGSH_Y174], the enrichment score was inactive: 0.272.
In the case of NSNSDYVDILP [SH2D1B_Y127_V130I], the enrichment score is inactive: 0.624.
For TEQMAYCPIQC [SHC4_Y403], the enrichment score was inactive: 0.803.
As for TEHMAYCPIQC [SHC4_Y403_Q400H], the enrichment score is inactive: 0.884.
On the same count and under the same terms, under LYRYGYANTSE [SI_Y1233_C1229Y] stands inactive: 1.13; under GPRKAYELSQR [SETX_Y1297], inactive: 0.6.

For the next experiment, the target named is SHP2 N-SH2 domain L43F. The description is as above. Particulars: peptide library: pTyr-Var.
Consider KRGVSYILKLA [SERPINB1_Y84_A82V], for which the enrichment score was inactive: 1.03.
For the molecule GLDSSYLLRDS [SH2D1A_Y29_G27S], the enrichment score is inactive: 0.77.
Same read-out and setting: under LLNAIYLSAKR [SERPING1_Y294_W299R] stands inactive: 1.86; under DLVRPYVHKIL [SF3B1_Y570], inactive: 1.29.
On the same count and under the same terms, in the case of IVGRLYRLLTE [SETX_Y1978_L1976R] it was inactive: 1.16; in that of LLNAIYLSAKW [SERPING1_Y294], inactive: 1.06.
On the same count and under the same terms, under VMTLDYSKTVV [SETD2_Y770_V768L] stands inactive: 1.2.
VLAAQYTTVGR [SGSH_Y240_D235V]: the enrichment score was inactive: 1.16.
The same measure, in the same setting: under GPCKAYELSQR [SETX_Y1297_R1294C] stands inactive: 1.04; under DAVAVYDGKIS [SH2D1A_Y7_H8D], inactive: 0.734.
As for DPTFGYEDFTR [SESN2_Y323], the enrichment score was inactive: 0.75.
Same read-out and setting: under FLLRVYSIFSK [SGCE_Y38_T36R] stands inactive: 1.8; under RPFFLYVAFHD [SGSH_Y174], inactive: 0.755; under NSNSDYVDILP [SH2D1B_Y127_V130I], inactive: 0.806.
Still for that read-out and setting: in the case of TEQMAYCPIQC [SHC4_Y403] it was inactive: 0.701.
Turning to TEHMAYCPIQC [SHC4_Y403_Q400H], the enrichment score is inactive: 0.727.
Same read-out and setting: in the case of LYRYGYANTSE [SI_Y1233_C1229Y] it was inactive: 0.895.
On the same count and under the same terms, in the case of GPRKAYELSQR [SETX_Y1297] it was inactive: 0.554.

A further experiment concerns the target SHP2 N-SH2 domain T42A. The experiment is described as above. To be noted: peptide library: pTyr-Var.
Take KRGVSYILKLA [SERPINB1_Y84_A82V]: the enrichment score was inactive: 0.962.
Regarding GLDSSYLLRDS [SH2D1A_Y29_G27S], the enrichment score was inactive: 0.61.
For the molecule LLNAIYLSAKR [SERPING1_Y294_W299R], the enrichment score was inactive: 1.59.
For the molecule DLVRPYVHKIL [SF3B1_Y570], the enrichment score is inactive: 1.31.
Consider IVGRLYRLLTE [SETX_Y1978_L1976R], for which the enrichment score was inactive: 1.1.
Same read-out and setting: under LLNAIYLSAKW [SERPING1_Y294] stands inactive: 1.13.
Still for that read-out and setting: under VMTLDYSKTVV [SETD2_Y770_V768L] stands inactive: 0.824; under VLAAQYTTVGR [SGSH_Y240_D235V], inactive: 1.35.
For the molecule GPCKAYELSQR [SETX_Y1297_R1294C], the enrichment score is inactive: 0.696.
Same read-out and setting: in the case of DAVAVYDGKIS [SH2D1A_Y7_H8D] it was inactive: 0.877; in that of DPTFGYEDFTR [SESN2_Y323], inactive: 0.756.
For FLLRVYSIFSK [SGCE_Y38_T36R], the enrichment score was inactive: 1.6.
In the case of RPFFLYVAFHD [SGSH_Y174], the enrichment score is inactive: 0.351.
NSNSDYVDILP [SH2D1B_Y127_V130I]: the enrichment score was inactive: 0.614.
With TEQMAYCPIQC [SHC4_Y403], the enrichment score is inactive: 0.879.
Same read-out and setting: under TEHMAYCPIQC [SHC4_Y403_Q400H] stands inactive: 0.729; under LYRYGYANTSE [SI_Y1233_C1229Y], inactive: 1.54; under GPRKAYELSQR [SETX_Y1297], inactive: 0.564.

The next experiment concerns the target SHP2 N-SH2 domain T52S. Described as above. Particulars: peptide library: pTyr-Var.
In the case of KRGVSYILKLA [SERPINB1_Y84_A82V], the enrichment score is inactive: 1.1.
With GLDSSYLLRDS [SH2D1A_Y29_G27S], the enrichment score is inactive: 0.658.
The same measure, in the same setting: in the case of LLNAIYLSAKR [SERPING1_Y294_W299R] it was inactive: 2.06; in that of DLVRPYVHKIL [SF3B1_Y570], inactive: 1.15; in that of IVGRLYRLLTE [SETX_Y1978_L1976R], inactive: 1.2.
Consider LLNAIYLSAKW [SERPING1_Y294], for which the enrichment score is inactive: 1.18.
On the same count and under the same terms, in the case of VMTLDYSKTVV [SETD2_Y770_V768L] it was inactive: 1.07.
On the same count and under the same terms, in the case of VLAAQYTTVGR [SGSH_Y240_D235V] it was inactive: 1.07; in that of GPCKAYELSQR [SETX_Y1297_R1294C], inactive: 0.862.
On the same count and under the same terms, under DAVAVYDGKIS [SH2D1A_Y7_H8D] stands inactive: 0.931; under DPTFGYEDFTR [SESN2_Y323], inactive: 0.767; under FLLRVYSIFSK [SGCE_Y38_T36R], inactive: 2.24.
As for RPFFLYVAFHD [SGSH_Y174], the enrichment score is inactive: 0.358.
On the same count and under the same terms, in the case of NSNSDYVDILP [SH2D1B_Y127_V130I] it was inactive: 0.882; in that of TEQMAYCPIQC [SHC4_Y403], inactive: 0.723; in that of TEHMAYCPIQC [SHC4_Y403_Q400H], inactive: 0.718.
Turning to LYRYGYANTSE [SI_Y1233_C1229Y], the enrichment score is inactive: 0.9.
In the case of GPRKAYELSQR [SETX_Y1297], the enrichment score is inactive: 0.659.

For another experiment, the target named is SHP2 N-SH2 domain wild-type. The description is as above. To be noted: peptide library: pTyr-Var.
Regarding KRGVSYILKLA [SERPINB1_Y84_A82V], the enrichment score is inactive: 1.
Same read-out and setting: under GLDSSYLLRDS [SH2D1A_Y29_G27S] stands inactive: 0.663.
Take LLNAIYLSAKR [SERPING1_Y294_W299R]: the enrichment score was inactive: 1.44.
Same read-out and setting: in the case of DLVRPYVHKIL [SF3B1_Y570] it was inactive: 0.979; in that of IVGRLYRLLTE [SETX_Y1978_L1976R], inactive: 0.926.
With LLNAIYLSAKW [SERPING1_Y294], the enrichment score is inactive: 1.63.
Still for that read-out and setting: in the case of VMTLDYSKTVV [SETD2_Y770_V768L] it was inactive: 1.02; in that of VLAAQYTTVGR [SGSH_Y240_D235V], inactive: 0.97.
Take GPCKAYELSQR [SETX_Y1297_R1294C]: the enrichment score is inactive: 0.848.
Take DAVAVYDGKIS [SH2D1A_Y7_H8D]: the enrichment score is inactive: 1.21.
For DPTFGYEDFTR [SESN2_Y323], the enrichment score is inactive: 0.927.
On the same count and under the same terms, in the case of FLLRVYSIFSK [SGCE_Y38_T36R] it was inactive: 1.78.
On the same count and under the same terms, under RPFFLYVAFHD [SGSH_Y174] stands inactive: 0.414.
On the same count and under the same terms, in the case of NSNSDYVDILP [SH2D1B_Y127_V130I] it was inactive: 0.687; in that of TEQMAYCPIQC [SHC4_Y403], inactive: 0.859.
Regarding TEHMAYCPIQC [SHC4_Y403_Q400H], the enrichment score is inactive: 1.02.
For the molecule LYRYGYANTSE [SI_Y1233_C1229Y], the enrichment score was inactive: 1.11.
In the case of GPRKAYELSQR [SETX_Y1297], the enrichment score is inactive: 0.671.
